# Assay results taken from PubChem BioAssay AID1346428 (National Center for Advancing Translational Sciences (NCATS), 2018).
# Where “and” joins values, the source holds several entries; their conditions need not be identical. Identical values can stand only once. Among all 48,000 compounds or so, about 1,200 (2.5%) were called active. Not shown: some 2% with an inconclusive outcome.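 Rule for the calls: active = activation of at least 60% and not above a set upper limit (about 1 call in 100 departs from these limits); inconclusive = activation of 40% to 60%, or above that upper limit; inactive = activation under 40%.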 The list shows a part of the results.
# Target: Probable G-protein coupled receptor 32 (Homo sapiens) (UniProt O75388)
# UniProt O75388, sequence (O75388 whole entry, looked up): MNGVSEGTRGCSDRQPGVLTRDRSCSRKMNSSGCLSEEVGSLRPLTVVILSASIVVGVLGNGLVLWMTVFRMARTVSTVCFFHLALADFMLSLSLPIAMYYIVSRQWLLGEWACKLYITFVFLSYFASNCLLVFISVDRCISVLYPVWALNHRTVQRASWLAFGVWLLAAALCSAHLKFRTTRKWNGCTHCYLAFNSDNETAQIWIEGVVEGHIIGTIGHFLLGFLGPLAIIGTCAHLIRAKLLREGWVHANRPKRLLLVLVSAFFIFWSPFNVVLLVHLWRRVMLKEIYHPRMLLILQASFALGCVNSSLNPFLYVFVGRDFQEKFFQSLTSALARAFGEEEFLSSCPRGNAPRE
# Experiment: qHTS for Agonists of Human Resolvin D1 Receptor DRV1; note: 0% is about no effect
# Conditions: CHO-K1 GPR32 beta-arrestin PathHunter luminescence, 90 min; at 76.9 µM; active compounds read high; zero percent set by DMSO-only wells
# Outline: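 PathHunter beta-arrestin recruitment in CHO-K1 cells stably expressing ProLink-tagged GPR32. Cells were exposed to compound for 90 min at 37 C, then chemiluminescence was read after 1 h detection at ambient temperature; DMSO served as basal control.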
row,SMILES,activation
1,Cc1nc2cccnc2n1-c1cccc(C(=O)N2CCN(c3ccc(Cl)cc3)CC2)c1,inactive: 46.3%
2,CCN(CCCNC(=O)Cn1ncc2c([nH]c3ccc(C)cc32)c1=O)c1cccc(C)c1,inactive: -10.9%
3,CCC(=O)N1c2ccccc2CC1C(=O)NCc1ccc(OC(C)C)cc1 (centres undefined),inactive: -0.76%
4,Cc1cccc(CCNC(=O)c2sc3nc4n(c(=O)c3c2C)CCCC4)c1,inactive: -8.54%
5,COc1ccc(C2CC(=O)Nc3c2c(C)nn3-c2nncc(-c3ccc(C)cc3)n2)c(OC)c1OC (centres undefined),inactive: -5.25%
6,CCOC(=O)Nc1ccc(NCc2ccc(F)cc2)nc1N,inactive: -4.49% and inactive: -2.33%
7,CCOc1ccc(-c2nc(SCC(=O)Nc3ccc4c(c3)OCO4)c(-c3ccc(F)cc3)[nH]2)cc1,inactive: -12.1%
8,CCc1ccccc1NC(=O)c1ccc2c(c1)N(Cc1cccc(Cl)c1)C(=O)c1ccccc1S2(=O)=O,inactive: 3.3%
9,Cc1csc2nc(-c3cccc(NC(=O)C(C)C)c3)cn12,inactive: -14%
10,Cc1cccc(OCC(O)CNC(C)(C)C)c1C (centres undefined),inactive: -3.15%
11,Cc1sc2ncn(CC(=O)N(C)c3ccc(Br)cc3)c(=O)c2c1S(=O)(=O)N1CCC(C)CC1,inactive: -22.9%
12,Cc1nc2c(C(=O)NCc3ccccc3)c[nH]n2c(=O)c1Cc1ccccc1Cl,inactive: -3.18%
13,CC(=O)N1CCc2cc(S(=O)(=O)CCC(=O)N3CCN(c4cccc(C)c4C)CC3)ccc21,inactive: 3.47%
14,Cc1cccc(NC(=O)c2c(C)oc3ncn(CC(C)C)c(=O)c23)n1,inactive: -4.38%
15,COc1ccc(NC(=O)c2noc3c2CCCC3)cc1Cl,active: 85.5%
16,O=C(NCCc1ccccc1)c1cc(-c2ccc(Cl)cc2)on1,inactive: 1.78%
17,CCCOC1(C(F)(F)F)NC(=O)N(c2ccc(Cl)cc2)C1=O (centres undefined),inactive: -3.78%
18,Cc1cc(C)c(NC(=O)CSc2nc(=O)[nH]c3c2CCCC3)c(C)c1,inactive: 11.3%
19,CC(C)(C)c1ccc(OCC(=O)N2CCC(c3nc4ccccc4s3)CC2)cc1,inactive: 24.6%
20,CCOc1ccc(-c2nnc(Nc3ccc(S(N)(=O)=O)cc3)c3ccccc23)cc1,inactive: 25.4%
21,Cc1oc2c(c(C)cc3oc(=O)c(CC(=O)NCCc4ccccc4)c(C)c32)c1C,inactive: -12.6%

row,SMILES,activation
1,CN1C(C(=O)c2ccccc2)=C(OC(=O)c2ccc(Br)cc2)c2ccccc2S1(=O)=O,inactive: -30.2%
2,O=C(NC(=O)c1ccc(F)cc1)Nc1ccc(-c2cc(C(F)(F)F)nn2-c2ccccc2)cc1,inactive: 4.82%
3,O=C(NCCc1csc2nc(-c3ccccc3F)nn12)c1ccco1,inactive: 17.7%
4,COc1ccccc1NC(=O)c1c(NCc2ccc(OC)c(OC)c2OC)sc2c1CCCC2,inactive: -3.2%
5,CCOC(=O)c1c(C)[nH]c(C)c1S(=O)(=O)NCC(=O)Nc1cc(C)ccc1OC,inactive: 0.249%
6,Cc1ccc(NC(=O)Nc2ccc3c(c2)N(C)C(=O)c2ccccc2S3)c(C)c1,inactive: -15.1%
7,COc1ccc(NC(=O)c2cc3c(=O)n(Cc4ccco4)ccc3nc2C)cc1,inactive: -9.93%
8,CCN1CCN(CCCNC(=O)c2cnn(-c3ccccc3)c2C2CCN(C(=O)OC(C)(C)C)CC2)CC1,inactive: -11%
9,COc1ccc(N2CCN(S(=O)(=O)CCNC(=O)C(c3ccccc3)c3ccccc3)CC2)cc1,inactive: -23.9%
10,O=C(O)CCCC[C@@H]1SC[C@@H]2NC(=O)N[C@@H]21,inactive: 7.14%
11,CN1CCN(c2cc3c(cc2F)c(=O)c(C(=O)O)cn3-c2ccc(F)cc2)CC1,inactive: -21.5%
12,Cc1ccc(-c2c(CN3CCN(c4cccc(C(F)(F)F)c4)CC3)csc2C)cc1,inactive: -16.1%
13,COc1cccc(C2C=C(c3ccc(C)c(C)c3)Nc3nnnn32)c1OC (centres undefined),inactive: -12.3%
14,CCCCOc1ccc(C(=O)Nc2cccc(-c3nc4cccnc4s3)c2)cc1,inactive: -13.1%
15,COc1ccccc1CNC(=O)C(NS(=O)(=O)c1cccs1)C(C)C (centres undefined),inactive: -9.16%
16,COc1ccc(-c2cc3ccc(O)c(CN4CCOCC4)c3oc2=O)cc1OC,inactive: 18.3%
17,Cc1cc2n(n1)C(c1cc(C(C)(C)C)c(O)cc1O)Nc1ccccc1-2 (centres undefined),inactive: -36.8%
18,CCOc1ccc(OCC)c(NC(=O)c2nnn(CC(=O)Nc3ccc(C)cc3C)c2N)c1,inactive: -13.6%
19,CSc1cccc(NC(=O)CN2C(=O)COc3ccc(Cl)cc32)c1,inactive: 26.2%
20,CCOc1ccc(C(=O)N2CCC(c3nc4ccccc4o3)CC2)cc1,inactive: -19.5%
21,CCOc1ccc(NC(=O)CSc2nc3c(oc4ccccc43)c(=O)n2-c2ccccc2C)cc1,inactive: -7.05%

row,SMILES,activation
1,CC(NC(=O)c1ccc2c(c1)CCN2S(=O)(=O)c1ccc(Cl)cc1)c1ccccc1 (centres undefined),inactive: -10.6%
2,CCCCc1ccc(NC(=O)c2cc3c(=O)n4ccccc4nc3s2)cc1,inactive: 3.86%
3,COc1ccccc1-c1nnc(SCC(=O)c2ccc(Cl)cc2)n1-c1ccccc1,active: 79.5%
4,Cc1ccc(NC(=O)NCCc2c(C)nn(C)c2C)cc1Cl,inactive: 41.7%
5,CCn1ccc2cc(S(=O)(=O)N3CCCN(C(=O)Nc4cccc(Cl)c4)CC3)ccc21,inactive: 5.37%
6,COc1ccc(C2=NN(CC(=O)NCCc3ccc(OC)c(OC)c3)C(=O)CC2)cc1,inactive: -10.7%
7,COc1ccc(N(C)C(=O)c2cn(C3CCCCC3)c(=O)c3c2c2ccccc2n3C)cc1,inactive: -28.5%
8,CCOC(=O)c1c(S(=O)(=O)N2CCCC(C(=O)Nc3cccc(Cl)c3)C2)c(C)n(C)c1C (centres undefined),inactive: -2.84%
9,CCCCN(CC)CCCNC(=O)CCN1N=C(c2ccc(OC)cc2)CCC1=O,inactive: -9.97%
10,COc1ccccc1NC(=O)C(=O)NCCc1csc(-c2cccc(F)c2)n1,inactive: 0.802%
11,COc1ccc(NC(=O)c2cc(C3CC3)nc3c2c(C)nn3-c2ccccc2)cc1,inactive: -22.8%
12,COc1ccccc1NC(=O)C1=C(C)Nc2ncnn2C1c1ccccc1C(=O)O (centres undefined),inactive: -2.86%
13,COc1ccc(-n2c(=O)c3c4c(sc3n(Cc3ccc(F)cc3)c2=O)CCCC4)c(OC)c1,inactive: 25%
14,COc1cccc(CNC(=O)c2cc3c(s2)-c2ccccc2OC3)c1,inactive: -9.13%
15,Cc1cc(N2CCCCC2)nc2ccc(NC(=O)c3cccc(Cl)c3)cc12,inactive: -26.9%
16,CCOc1ccc(CNS(=O)(=O)c2cc3c(cc2C)NC(=O)CO3)cc1OC,inactive: -10.5%
17,CCOc1ccccc1C(=O)Nc1ccc2nc(N(CC)CC)cc(C)c2c1,inactive: -10.5%
18,CN1C(=O)c2ccccc2Sc2ccc(NC(=O)c3ccccc3F)cc21,inactive: -4.29%
19,O=C1c2oc3ccccc3c(=O)c2C(c2ccccc2)N1Cc1ccc2c(c1)OCO2 (centres undefined),inactive: -2.25%
20,CCOC(=O)c1cccc(NC(=O)[C@@H](c2ccccc2)N2Cc3ccccc3C2=O)c1,inactive: -6.38%
21,Cc1cc(C)c(NC(=O)Cc2csc(C)n2)c(Cl)c1,inactive: -14.2%

row,SMILES,activation
1,CCN1C(=O)c2ccccc2Sc2ccc(C(=O)NCCCN(CC(C)C)CC(C)C)cc21,inactive: -25%
2,CC1COc2c(N3CCN(C)CC3)c(F)cc3c(=O)c(C(=O)O)cn1c23 (centres undefined),inactive: -37.8% and inactive: -0.885%
3,COc1ccccc1CNc1ccc(-c2nc(-c3cccnc3)no2)cc1[N+](=O)[O-],inactive: -19.7%
4,CCOc1ccccc1C1C(C(=O)N2CCCCC2)=C(C)Nc2nc3ccccc3n21 (centres undefined),inactive: 9.74%
5,CCOc1ccccc1NC(=O)c1nn(-c2ccc(C)cc2)c(=O)n(C)c1=O,inactive: -3.24%
6,COC(=O)c1c(-c2cccs2)csc1NC(=O)COc1ccc(C(C)(C)C)cc1,inactive: 5.81%
7,O=C(NCC1CCN(Cc2cccc(Cl)c2)CC1)Nc1cc(Cl)ccc1Cl,inactive: 6.7%
8,COc1ccc(N(C)C(=O)CCn2cnc3onc(-c4ccc(F)cc4)c3c2=O)c(OC)c1,inactive: 16%
9,COc1cccc(NC(=O)CN2C(=O)c3cccnc3Oc3ccc(Cl)cc32)c1,inactive: -32.8%
10,CCc1ccc(NC(=O)c2sc(-n3nc(C)c(Cc4ccc(OC)cc4)c3C)nc2C)cc1,inactive: 4.54%
11,COc1ccc(C2CC(=O)N(CC(=O)Nc3cc(C)ccc3C)c3ccccc3S2)cc1 (centres undefined),inactive: 5.06%
12,CCCCN(CCCC)C(=O)c1cc2c(=O)n3cccc(C)c3nc2s1,inactive: 28.4%
13,N[C@@H](CSSC[C@H](N)C(=O)O)C(=O)O,inactive: -69.3%
14,CCCCCS(=O)(=O)c1oc(-c2cccs2)nc1S(=O)(=O)c1ccc(C)cc1,inactive: -15%
15,CC(C)(C)OC(=O)N1CCC(c2c(C(=O)N3CCC(c4ccccc4)C3)cnn2-c2cccc(Cl)c2)CC1 (centres undefined),inactive: -24.4%
16,Cc1cccc(OCC(=O)N(Cc2cccs2)c2ccc(Cl)cc2)c1C,inactive: -4.73%
17,CCOc1ccc(CCNC(=O)Cn2nc(CC)n3c(cc4ccccc43)c2=O)cc1,inactive: -4.49%
18,COc1ccc(-c2c3c(=O)n(C)c(=O)n(C)c3c3n2-c2ccccc2NC3c2ccco2)cc1 (centres undefined),inactive: -7.65%
19,COc1cc(C(=O)NCC(c2cccs2)S(=O)(=O)c2cccs2)cc(OC)c1OC (centres undefined),inactive: 27.5%
20,Cc1cc(=O)n(CC(=O)N2CCN(c3ccccc3F)CC2)c2c1c(C)nn2C,inactive: 40%
21,CCc1ccccc1NC(=O)c1cnc(N2CCCCC2)c2ccccc12,inactive: 0.647%
